The values that follow come from PubChem BioAssay AID463173 (ICCB-Longwood Screening Facility, Harvard Medical School, 2010).

The campaign covered roughly 52,000 compounds. About 1,700 (3.3%) were called active. Cut-off read from the data, not from the text of the source: active = survival mostly below about 52% (no sharp cut-off); inactive = mostly above about 56%. This is one part of the list.

This assay has as its system Wild type. As to the kind of experiment: S. aureus survival, RN4220 and DeltatarO strains – OD600, teichoic acid synthesis inhibitors, primary screen (AID 463173). The following applies: S. aureus RN4220 wild type/DeltatarO growth, OD600, 18 h, hits give low values, screened at 18.75 µg/mL (by protocol).
`Cc1ccc(CNC(=O)C2CCN(S(=O)(=O)N3CCC(C)CC3)CC2)cc1`: the survival was inactive: 77%. Take `Oc1c(C(c2ccccc2)N2CCN(Cc3ccccc3)CC2)sc2nc(-c3ccco3)nn12` (configuration not stated): the survival was active: 10%. Consider `COc1ccccc1CNC(=O)C(=O)NCC(c1cccs1)S(=O)(=O)c1ccc(F)cc1` (configuration not stated), for which the survival was inactive: 99%.

Consider `CC1=C(C(=O)OCC2CCCCC2)C(c2ccc(F)cc2F)CC(=O)N1` (configuration not stated), for which the survival is inactive: 85%.

As for `COc1cc(Cl)c(C)cc1NC(=O)CCc1nc2cccnc2n1-c1ccccc1`, the survival is inactive: 84%. For `COc1ccc(NC(=O)Cn2c(SCc3cccc(Cl)c3)nc3ccncc32)c(OC)c1OC`, the survival is inactive: 65%.

As for `CC1=C(C(=O)Nc2ccccc2)C(c2ccccc2)n2nc(-c3ccco3)nc2N1` (configuration not stated), the survival is inactive: 87%. Consider `CC(=O)Nc1nnc(SCc2cc(=O)c3cc(C)ccc3[nH]2)s1`, for which the survival is inactive: 73%.

On to `CCCCNC(=O)C1CCN(S(=O)(=O)c2cc(Br)cc3c2N(C(=O)CC)CC3)CC1`, for which the survival was inactive: 97%.

With `Cn1c(=O)cc(SCC(=O)NCc2ccc(F)cc2)c2ccc(Cl)cc21`, the survival is inactive: 81%. On to `COc1ccc(-c2nnc(SCC(=O)Nc3cccc(F)c3)s2)cc1`, for which the survival was inactive: 70%.

On to `Cc1ccc(NCc2cccn2-c2nnc(N3CCCCCC3)s2)cc1`, for which the survival was inactive: 77%. As to `CCOc1ccccc1NC(=O)C(C)Sc1cc(-c2ccccc2)nc(C)n1` (configuration not stated), the survival was inactive: 78%. Turning to `O=C1CCN(Cc2ccccc2)C(=S)N1`, the survival was inactive: 95%.

On to `COC(=O)C1=CN(C2CC2)C=C(C(=O)OC)C1c1ccsc1`, for which the survival was inactive: 110%. Consider `Cc1nc(-c2ccc(F)cc2)sc1CCNC(=O)C(=O)Nc1ccc2c(c1)OCCO2`, for which the survival is inactive: 80%.

Turning to `OCCN(CCO)c1ncnc2c1cnn2-c1ccc(F)cc1`, the survival was active: 1%. Regarding `COC(=O)c1cc(-c2ccc(C)cc2)c2c(=O)n(C)c(=O)n(C)c2n1`, the survival was inactive: 105%. As for `COc1ccccc1C(=O)Oc1ccc(C(c2c(C)[nH][nH]c2=O)c2c(C)[nH][nH]c2=O)cc1`, the survival was inactive: 83%. Under `Nc1ncnc2nc(SCCO)[nH]c12` stands inactive: 106%; under `COc1ccc(CC(=O)Nc2ccc(-c3nc4ccccc4s3)c(C)c2)cc1OC`, active: 10%. Under `COc1ccc2oc(=O)c(C(=O)N3CCN(c4ccc(C)cc4)CC3)cc2c1` stands inactive: 74%. On to `COc1ccc(-c2cc(C(F)(F)F)nc(NCCc3ccccc3)n2)cc1OC`, for which the survival is inactive: 81%. For `Cc1csc2nc(COC(=O)c3ccccc3NC(=O)c3ccc(C(C)(C)C)cc3)cc(=O)n12`, the survival is inactive: 55%. Under `COc1cccc(CNC(=O)c2cc(S(=O)(=O)N3CCCCC3)c[nH]2)c1` stands inactive: 83%; under `CSc1nn(Cc2ccc(C)cc2)c(N)c1S(=O)(=O)c1ccccc1`, inactive: 67%. Regarding `COc1ccc(-c2cc(C(=O)Nc3c(C)n(C)n(-c4ccccc4)c3=O)no2)cc1OC`, the survival was inactive: 78%.

`O=C(CCCn1c(=O)c2cccn2c2ccccc21)NCCc1ccc(Cl)cc1`: the survival was inactive: 31%.

In the case of `CCOC(=O)c1c(NC(=O)C2c3ccccc3Oc3ccccc32)sc(C)c1C`, the survival is inactive: 21%.

For the compound `CCOc1ccc(C(=O)OC(C)CN2CCCCC2)cc1` (configuration not stated), the survival was inactive: 103%. In the case of `CCOc1cccc2sc(N(Cc3cccnc3)C(=O)c3ccc(C#N)cc3)nc12`, the survival was inactive: 89%.

With `Cc1c(CC(=O)NCc2ccc(F)cc2)c(=O)oc2cc(O)c(Cl)cc12`, the survival was inactive: 76%. With `COc1ccc(NC(=O)CC2NCCNC2=O)c(OC)c1` (configuration not stated) the figure was inactive: 75%.

In the case of `O=C(NCc1ccccc1Cl)c1ccc2oc(=O)n(Cc3ccccc3)c2c1`, the survival was inactive: 81%. On to `Cc1cc(C)n(-c2nc3ccccc3nc2N2CCN(c3cccc(C(F)(F)F)c3)CC2)n1`, for which the survival is inactive: 88%.

As to `Cc1cccc(-n2nc(C)c(C(=O)Nc3cc(C)ccc3C)c2-n2cccc2)c1`, the survival was inactive: 66%.

`CCN1C(=O)/C(=C\C=C2/N(CC)c3ccc(C(=O)OC)cc3N2CC)SC1=S`: the survival was inactive: 96%. For the compound `O=C(Nc1nncs1)Oc1ccccc1`, the survival was inactive: 105%.

With `Cc1ccc(-n2c(SCc3ccccc3)nc3c([nH]c4ccccc43)c2=O)cc1`, the survival is inactive: 72%. As to `CCN(CC)C(=O)O[n+]1ccccc1C(C)C`, the survival is inactive: 113%. Turning to `O=C(Nc1ccc(-c2nc3cc(Cl)ccc3o2)cc1)c1cc2ccccc2o1`, the survival was inactive: 82%. For the compound `COc1ccc(CNC(=O)c2ccc3nc(-c4ccc(F)cc4)c(-c4ccc(F)cc4)nc3c2)cc1`, the survival was inactive: 80%. Regarding `Cc1nnc(NC(=O)c2ccccc2)s1`, the survival was inactive: 71%.

On to `CCC1(C)Cc2c(sc3nc(SC)n(-c4ccc(C)cc4)c(=O)c23)CO1` (configuration not stated), for which the survival is inactive: 57%. Regarding `Cc1ccc(NC(=O)c2ccccc2Br)c(C(=O)c2ccccc2)c1`, the survival is inactive: 25%. As for `Nc1nc(-c2ccco2)nn1S(=O)(=O)c1ccccc1`, the survival was inactive: 93%. Regarding `Cc1cc(NC(=O)CCNS(=O)(=O)c2cccc3nsnc23)ccc1Br`, the survival was inactive: 123%. On to `COc1ccc(Cn2c(SCc3ccc(C(=O)NC(C)c4ccccc4)cc3)nc3cccnc32)cc1` (configuration not stated), for which the survival is inactive: 75%. Regarding `CC1CCN(c2nc3ccc(C(=O)NCc4ccccc4)cc3s2)CC1`, the survival was inactive: 74%. Consider `Cc1cccc(N2CCN(C(=O)CS(=O)(=O)Cc3nc(-c4ccccc4C)oc3C)CC2C)c1` (configuration not stated), for which the survival was inactive: 54%. In the case of `CCc1ccc(S(=O)(=O)c2nnn3c2nc(Nc2ccc(NC(C)=O)cc2)c2sccc23)cc1`, the survival is inactive: 86%. Under `CCOc1ccc(N(Cc2ccccc2)C(=O)c2nc(S(C)(=O)=O)ncc2Cl)cc1` stands inactive: 39%; under `COc1ccc(OC)c(NC(=O)Cn2c(=O)cc(-c3ccccc3)c3c(C)nn(C)c32)c1`, inactive: 74%.

In the case of `COc1cc(NC(=O)CCCOc2cc(=O)n(C)c3ccccc23)cc(OC)c1OC`, the survival was inactive: 81%. Turning to `CCOC(=O)CNC(=O)N1CCN(c2nnc(C)c3c(C)n(-c4ccc(Cl)cc4)nc23)CC1`, the survival was inactive: 72%. `Cc1cccc(C(=O)N=Nc2c(O)[nH]c3ccc(C)cc23)c1`: the survival is inactive: 117%.

For the compound `O=C(O)CCC(=O)Nc1ccncc1`, the survival is inactive: 101%.

As for `O=S(=O)(NCc1nc2cccnc2n1Cc1ccccc1Cl)c1ccc(F)c(Cl)c1`, the survival is inactive: 76%.

On to `CC(=O)c1c(C)oc2c1cc(NS(=O)(=O)c1ccc(Cl)c(C)c1)c1ccccc12`, for which the survival is inactive: 76%. Under `COCc1nnc(NC(C)=O)s1` stands inactive: 97%; under `O=C(Nc1ccc(Cl)cc1)C(NS(=O)(=O)c1cccs1)c1ccccc1` (configuration not stated), inactive: 40%; under `Cc1cccc(OCC(=O)Nc2nnc(S(=O)(=O)N3CCc4ccccc43)s2)c1`, inactive: 25%.

Turning to `Cc1ccc(-n2c(Cc3ccccc3)nnc2SCc2nc(-c3cccs3)no2)cc1C`, the survival is inactive: 63%. As to `Cc1nc(-c2ccc(C)c(N3CCN(C(=O)Nc4cccc(Cl)c4C)CC3)c2)no1`, the survival is inactive: 78%. For the compound `CCOC(=O)C1CCCN(Cc2cn3c(-c4cccc(Br)c4)nnc3s2)C1` (configuration not stated), the survival was inactive: 85%. Take `CCC(C(=O)Nc1cc(F)ccc1F)n1nc(C)c2c(C)n(-c3ccc(C)cc3)nc2c1=O` (configuration not stated): the survival was inactive: 72%.

Consider `Cc1cc(C)c2c(=O)cc(CSc3n[nH]c(C)n3)[nH]c2c1`, for which the survival is inactive: 74%. For `O=c1[nH]cc(N2CCOCC2)c(=O)[nH]1`, the survival was inactive: 108%.

On to `COc1ccc(CCC(=O)NC2CC(=O)N(c3ccc(OC)cc3)C2)cc1` (configuration not stated), for which the survival was inactive: 79%.

As for `CCc1ccccc1NC(=O)c1noc2c1CC(C(C)(C)C)CC2` (configuration not stated), the survival was active: -11%. Regarding `CCN(C(=O)c1cn(CC)c(=O)c2cc(OC)c(OC)cc12)c1ccccc1F`, the survival is inactive: 146%. As to `Cc1cccc(NC(=O)C(=O)NCCc2csc(-c3ccc(F)cc3)n2)c1C`, the survival is inactive: 75%.

Take `O=C(CSCc1ccc(F)cc1)N1CCc2c([nH]c3ccccc23)C1c1ccc(Cl)cc1` (configuration not stated): the survival was inactive: 84%. `COc1cc(C(=O)Nc2ccccc2-c2nc(-c3ccc(C)cc3)no2)cc(OC)c1OC`: the survival is inactive: 85%. Under `Cc1cc(N2CCCCC2)nc2ccc(NC(=O)CCC(=O)N3CCN(c4ccccc4)CC3)cc12` stands inactive: 75%. For the compound `O=C(CSc1ncccn1)NCCC1=CCCCC1`, the survival is inactive: 112%.

For the compound `Cc1cccc(N2CCN(C(=O)c3ccc(Nc4nc5ccccc5n5nnnc45)cc3)CC2)c1C`, the survival was inactive: 97%. `CCOC(=O)c1ccc(NC(=O)C2=C(C)Nc3nc(CCCO)nn3C2c2ccc(OC)cc2)cc1` (configuration not stated): the survival was inactive: 85%. For the compound `CC1=C(C(=O)Nc2cc(Cl)ccc2C)C(c2cccs2)n2ncnc2N1` (configuration not stated), the survival was inactive: 128%.

`CC(=O)NC(Cc1ccccc1)C(=O)NC1CCN(c2nnnn2-c2ccccc2)CC1` (configuration not stated): the survival is inactive: 87%. With `COc1ccc(NC(=O)CN2C(=O)c3cccnc3Sc3ccccc32)cc1OC` the figure was inactive: 81%; with `CCOc1ccccc1-n1nnnc1SCC(=O)c1cc(Cl)ccc1OC`, inactive: 91%; with `COc1ccc(CCNC(=O)C(C)n2c(=O)cc(-c3ccccc3)c3c(C)nn(C)c32)cc1OC` (configuration not stated), inactive: 69%. In the case of `CCSc1nc(-c2ccccc2F)nc2c1Cc1c(CO)cnc(C)c1O2`, the survival is inactive: 86%. As to `COc1cc(C2C(=O)N(C3CCCCC3)CC(=O)N2C2CCCCC2)ccc1OC(C)C` (configuration not stated), the survival was inactive: 83%. Consider `CC1CCN(c2nc3ccc(C(=O)N4CCN(c5ccccc5)CC4)cc3s2)CC1`, for which the survival is inactive: 64%. For `CCOc1ccc(N(CC)C(=O)c2cc3c(s2)-c2ccccc2OC3)cc1`, the survival was inactive: 88%. For the compound `N#CCCNc1nncs1`, the survival is inactive: 107%. As for `Cc1ccc(-c2nc3sccn3c2Nc2ccc(C)c(C)c2)cc1`, the survival is inactive: 73%.

As for `COc1cccc(N2CCN(C(=O)c3nn(C)c4c3CSc3ccc(C)cc3-4)CC2)c1`, the survival was inactive: 121%.

Regarding `CCC(=O)N1CCc2cc(CNC(=O)c3ccc(F)cc3)ccc21`, the survival was inactive: 73%. Turning to `Cc1ccc(SCc2nc(-c3ccc(C(=O)NCCc4ccc(Cl)cc4)cc3)oc2C)cc1`, the survival is active: -4%.
